The record followed here is publication PMC9574860, “Chemical Toolkit for PARK7: Potent, Selective, and High-Throughput” (Journal of Medicinal Chemistry, 2022).

The campaign covered roughly 7,900 compounds. About 400 (5.1%) showed an effect of 50% or more. The list shows a part of the results.

Chain of Parkinson's disease protein 7 (PARK7/DJ1) (Q99497 whole entry, looked up, the tested form may be a part): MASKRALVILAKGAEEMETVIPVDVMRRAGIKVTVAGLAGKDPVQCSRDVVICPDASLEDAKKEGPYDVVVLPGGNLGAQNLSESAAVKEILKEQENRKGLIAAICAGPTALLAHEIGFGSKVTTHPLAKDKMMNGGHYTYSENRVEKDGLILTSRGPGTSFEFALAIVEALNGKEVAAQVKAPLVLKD

The assay has as its target Parkinson's disease protein 7 (PARK7/DJ1) (human, UniProt Q99497). In words: primary screen, percent inhibition; read as competition with a fluorescent probe by fluorescence polarization; higher = more effect of the substance. The conditions noted are these: 100 µM. The gist of the method: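 Fluorescence-polarization probe displacement (JYQ-107, 20 nM final, 2 h) after 2 h preincubation of PARK7 (0.2 μM final) with each fragment at 100 μM final. Read-out ex/em 480/520 nm; remaining activity derived from FP signal loss relative to reference controls.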
`CN1CCC2(CCCN2C(=O)c2cccc(S(=O)(=O)F)c2)CC1`: the Inhibition % is 10.6%. Consider `Cl.N#Cc1ncn(C2CCNCC2)n1`, for which the Inhibition % stood at 5.75%. For `Cc1nn(C)c(Cl)c1C=CC(=O)N1CCC(C(N)=O)CC1`, the Inhibition % was determined as 6.3%. Then `Cc1ncc(C=CC(=O)N2CCC(C)(C(=O)O)C2)s1` (stereo not drawn), with 6.2%; and `CN(C)CC(C)(C)NS(=O)(=O)C=Cc1ccccc1`, with 12.8%.

With `O=C(O)c1ccc2c(c1)COB2O`, the Inhibition % is on record as 0.486%. As for `Cc1sc2nc(CCCCl)[nH]c(=O)c2c1C`, the figure is 8.5%. With `C=CC(=O)NCc1nc2cccnc2n1C`, the Inhibition % was 10.7%. As for `OB(O)C1CCN(Cc2cc(-c3ccccn3)n[nH]2)C1` (stereo not drawn), the Inhibition % was found to be 29.8%. On to `N#Cc1cc(Sc2nccs2)ccn1`, for which the Inhibition % was found to be 3.81%. `C=CC(=O)Nc1ccc2c(c1)CCC2`: the Inhibition % worked out at 7.23%. Take `CC(O)c1ccc(SC2CCOC2=O)cc1` (stereo not drawn): the Inhibition % was found to be 7.33%. Then `Cc1cc(Cn2nc(-c3ccc(F)cc3)oc2=O)on1`, with 14.5%; and `C=CC(=O)NCc1c(C)noc1C`, with 13.4%. With `O=C(CCl)NC(=O)Nc1ccccc1`, the Inhibition % is 28.5%. Regarding `CC(C)(C)c1ccccc1NC(=O)CCl`, the Inhibition % stood at 11.7%. As for `O=C(N1CCN(c2ccccc2Cl)CC1)n1ccnc1`, the figure is 11.7%; as for `O=C(CCl)Nc1cccc(Br)c1`, 29.1%. Take `C=CC(=O)NCC1CCCC(F)(F)C1` (stereo not drawn): the Inhibition % amounted to 8.9%. As for `CC(C)Oc1ccc(Cl)c(C#N)n1`, the figure is 4.72%.

Take `C=CC(=O)N1CCC(C)(C(N)=O)C1` (stereo not drawn): the Inhibition % is recorded as 6.84%. Then `C=CC(=O)N1c2ccccc2CCC1C` (stereo not drawn), with 6.12%. Consider `O=C(CCl)Nc1ccc2c(c1)OCCO2`, for which the Inhibition % is 55%. With `Cc1nn(C)c2ncc(C=C(C#N)C(=O)NC(C)C)cc12`, the Inhibition % is on record as 7.67%. Then `O=C(CCl)NCCc1ccc(F)cc1`, with 26.6%; and `Cc1ccc(NC(=O)C(C#N)=Cc2cn(C)cn2)c(C)c1`, with 10.3%. Consider `O=C1CCC(=O)N1CCN1CCCc2cc(F)ccc21`, for which the Inhibition % is 14.5%.

Take `CCN(C(=O)Cn1cnc(C#N)n1)C1=CCCC1`: the Inhibition % worked out at 5.92%.

Consider `Cc1ccc2[nH]c(SC3CC(C)OC3=O)nc2c1` (stereo not drawn), for which the Inhibition % amounted to 17.4%. For the compound `NC(=O)c1ccsc1NC(=O)CCCl`, the Inhibition % is 9.06%. As to `N#CC=C1NC(=O)c2ccccc2S1`, the Inhibition % is given as 28.7%. As to `Cn1cc(C=C(C#N)C(=O)O)cn1`, the Inhibition % stood at 5.91%. On to `C=CC(=O)N1CCN(CC(F)(F)F)C(C)C1` (stereo not drawn), for which the Inhibition % was 11.9%. As to `C=CC(=O)N1CCC(=O)N(C)c2ccccc21`, the Inhibition % came out at 1.46%. With `C=CC(=O)N1CCc2c(ncn(CC)c2=O)C1`, the Inhibition % is 28%.

Take `Cc1csc(C2CN(C3CC(C)OC3=O)CCO2)n1` (stereo not drawn): the Inhibition % is 6.49%. In the case of `CC(CCS(C)(=O)=O)NC(=O)c1cccnc1S` (stereo not drawn), the Inhibition % came out at 4.52%. Consider `CC1CCC2(CC1)CO2` (stereo not drawn), for which the Inhibition % is 10.7%. Regarding `CC1N=C(S)N(C2CC2)C1=O` (stereo not drawn), the Inhibition % was 3.34%.

As for `CC(C)(C)n1nccc1B1OC(C)(C)C(C)(C)O1`, the Inhibition % was 6.06%. Turning to `O=C(CCl)Nc1cccc(N2CCCC2=O)c1`, the Inhibition % stood at 15.3%. With `Cc1ccc(-c2nnc(S)[nH]c2=O)cc1`, the Inhibition % was 7.42%. Take `N#CC(=Cc1ccsc1)C(=O)Nc1ccc(C(=O)O)cc1`: the Inhibition % is listed as 20.7%. On to `CS(=O)(=O)OC1CCOC(c2ccncc2)C1` (stereo not drawn), for which the Inhibition % is reported as 7.05%. Take `O=C(CCCl)Nc1ccc2c(c1)CCC2`: the Inhibition % was 4.93%. For `O=C(Oc1ccc2c(c1)OCO2)N1CCCCC1`, the Inhibition % is 5.53%. `N#Cc1nc(NCCS(=O)c2ccccc2)ccc1Cl` (stereo not drawn): the Inhibition % is on record as 5.36%.

Consider `CCOc1cc(C)c(C)cc1S(=O)(=O)n1ccc(C)n1`, for which the Inhibition % is reported as 1.84%.

On to `Cl.O=C(O)C1CCN(C(=O)C=Cc2ccccc2Cl)C1` (stereo not drawn), for which the Inhibition % is recorded as -0.748%. For `CC(C)Oc1cncc(B2OC(C)(C)C(C)(C)O2)c1`, the Inhibition % is given as 7.07%. In the case of `C=CC(=O)N1c2ccc(Cl)cc2CC1C` (stereo not drawn), the Inhibition % turned out to be 13.3%. With `Cc1c(C=C2N=C3CCCCCN3C2=O)cc(C#N)n1C`, the Inhibition % was 0.425%.

Turning to `N#Cc1cccc(N2CCCC(F)C2)n1` (stereo not drawn), the Inhibition % came out at 14.3%. For `CC(C)(C)C(=O)NCc1ccc(C(=O)CCl)s1`, the Inhibition % stood at 76.2%. `C=CC(=O)NCCc1csc(C)n1`: the Inhibition % turned out to be 6.55%. Turning to `Cc1ccc(B2OC(C)(C)C(C)(C)O2)o1`, the Inhibition % worked out at 8.79%.

Consider `C=CC(=O)NCc1coc2ccccc12`, for which the Inhibition % was found to be 7.72%. For `O=C(CCl)N1CCOC(c2ccc(F)cc2)C1` (stereo not drawn), the Inhibition % stood at 95.3%.

Take `O=C(Oc1ccccc1)N1CC(O)C1`: the Inhibition % came to 29%.

Turning to `O=S(=O)(F)Cc1ccc(Cl)nc1`, the Inhibition % amounted to 20.4%.

As for `Cc1nc(C#N)c(NCc2cccnc2)o1`, the Inhibition % was determined as 4.8%. With `Cc1ccc(C=C(C#N)S(C)(=O)=O)s1`, the Inhibition % was found to be 6.48%.

With `C=CC(=O)N1C2CCC1CC(CC(F)F)C2` (stereo not drawn), the Inhibition % worked out at 6.6%. `CCN1C(=O)SC(Nc2ccc(C)cc2)C1=O` (stereo not drawn): the Inhibition % is listed as 7.51%. Take `COc1ccc(C)cc1S(=O)(=O)n1cccn1`: the Inhibition % was found to be 2.32%.

Take `COc1ccc(C)cc1S(=O)(=O)n1cnc(C)c1`: the Inhibition % is given as 5.56%. As to `C=CC(=O)NC[C@@H]1Cc2ccccc2CO1`, the Inhibition % is 4.89%. Regarding `CC(Nc1ccc(C#N)nc1)C1CCCOC1` (stereo not drawn), the Inhibition % is given as -0.898%.

Regarding `CCN(C(=O)c1cccc(B(O)O)c1)C1CCOC(C)(C)C1` (stereo not drawn), the Inhibition % stood at 8.99%.

In the case of `O=C(c1ccccc1F)N1CCCCC1C1OCCO1` (stereo not drawn), the Inhibition % is given as 3.89%. Turning to `Cl.OB(O)c1cncc(-n2cccn2)c1`, the Inhibition % is recorded as 6.29%. As to `O=S(=O)(C=Cc1ccccc1)Nc1ccsc1`, the Inhibition % stood at 4.95%. Consider `Cc1[nH]ncc1CCCNc1ccc(Cl)c(C#N)n1`, for which the Inhibition % turned out to be 0.425%.

Take `Cc1ccc(CN(C)C(=O)CCl)cc1`: the Inhibition % is 68.9%.

As to `C=CC(=O)N1CCCC(n2cc(C(=O)O)cn2)C1` (stereo not drawn), the Inhibition % was 9.81%.

Take `CCn1c(S)nc2cc(C(=O)O)ccc2c1=O`: the Inhibition % was found to be 3.7%. As for `CN1CC(=O)OB(c2ccc(O)cc2)OC(=O)C1`, the Inhibition % came out at 6.42%. With `COC(=O)c1cc(NC(=O)CCl)cn1C`, the Inhibition % is given as 7.93%. For the compound `CCCn1[nH]ccc1=NC(=O)CCl`, the Inhibition % was determined as 6.2%.

`O=S(=O)(F)CCN1CCOc2ccccc21`: the Inhibition % is reported as 17.4%. In the case of `O=C(CN1CCSC1=O)Nc1cc(Cl)ccc1Cl`, the Inhibition % was 2.2%.

In the case of `C=CC(=O)N1CCCC(n2ccnc2)C1` (stereo not drawn), the Inhibition % stood at 8.99%. Consider `C=CC(=O)Nc1ccc2nc(C3CC3)oc2c1`, for which the Inhibition % worked out at 11.6%. Then `O=C(CCl)NC1(c2ccccc2)CCC1`, with 2.96%; and `Cc1ccc(NC(=O)CN2CCSC2=O)c(F)c1`, with 2.2%. `N#CC12CC3CC(CC(Cl)(C3)C1)C2`: the Inhibition % is 8.03%. For `C=CC(=O)N1CCOC[C@@H]1Cc1ccccc1`, the Inhibition % came out at 5.84%. For the compound `C=CC(=O)NCCCC(=O)N1CCOc2ccccc21`, the Inhibition % is reported as 11%. Consider `Fc1ccc(C2CO2)c(F)c1` (stereo not drawn), for which the Inhibition % stood at 6.59%. On to `CCS(=O)(=O)N1CCc2cc(C(=O)CCl)ccc21`, for which the Inhibition % is reported as 11.9%. Turning to `C=CC(=O)N1CCn2c(Cl)ccc2C1C` (stereo not drawn), the Inhibition % stood at 22.2%. Then `O=C(CCl)Nc1nnn[nH]1`, with 30.2%; and `Cc1cnn(C)c1B1OC(C)(C)C(C)(C)O1`, with 3.95%; and `C=CC(=O)NCC1CCC=CO1` (stereo not drawn), with 6.04%. Take `O=C(O)C1CN(C(=O)C=CC2CCCCC2)CCO1` (stereo not drawn): the Inhibition % was 13.3%. In the case of `Cc1cccc(NC(=O)CNC(=O)CCl)c1C`, the Inhibition % worked out at 7.15%. Then `C=CC(=O)N1CCCC1c1ccccc1OC` (stereo not drawn), with 6.29%; and `CCc1cc(CCCCl)on1`, with 8.59%; and `CCNc1oc(-c2ccc(OC)cc2)nc1C#N`, with 4.05%. As for `C=CC(=O)N1CCCCC1c1nc(C)cs1` (stereo not drawn), the Inhibition % is recorded as 8.28%. Then `CN(C(=O)CCl)C1(C#N)CCCCC1`, with 31.2%; and `C=CC(=O)NC1(c2ccccc2)CCOCC1`, with 9.29%.

`CC1(C)OB(c2cccc3c2CCO3)OC1(C)C`: the Inhibition % was 9.99%.

Regarding `CN(C)c1ccc(C#N)nc1`, the Inhibition % worked out at 6.01%. For the compound `Cc1noc(C)c1CC(=O)N1CCCC(C2OCCO2)C1` (stereo not drawn), the Inhibition % is -196%. Turning to `CC(C)n1ncc(B2OC(C)(C)C(C)(C)O2)c1F`, the Inhibition % stood at 7.53%.

Turning to `O=C(CCl)NCc1ccccc1F`, the Inhibition % is reported as 22.6%. On to `O=S(=O)(F)c1ccc(S(=O)(=O)NC2CCCC2O)cc1` (stereo not drawn), for which the Inhibition % is 16.5%. `O=[N+]([O-])c1ccccc1S(=O)(=O)F`: the Inhibition % is listed as 99.1%. Regarding `C=CC(=O)NCC1C[C@@H]2COC[C@@H]2O1` (mixture of isomers), the Inhibition % was 9.67%. Take `NCC1CCCCN1C(=O)C=Cc1ccccn1` (stereo not drawn): the Inhibition % is on record as 1.06%. With `N#CC1(NC(=O)CCl)CCCCCC1`, the Inhibition % is reported as 15%. For `CC(C)[C@H]1OCC[C@@H]1CNC(=O)c1c[nH]c(C#N)c1`, the Inhibition % is reported as 10%. With `CNC(=O)C(C#N)=Cc1ccc(F)cc1`, the Inhibition % is 2.3%. Then `CC1(C)OB(c2ccc3ccsc3c2)OC1(C)C`, with 3.19%; and `C=CC(=O)N1CCC(CC(=O)N(C)C)CC1`, with 7%. As to `COc1ccc(F)cc1S(=O)(=O)n1ccc(C)n1`, the Inhibition % is listed as 3.57%. For the compound `O=C(CN1CCSC1=O)Nc1ccc(F)c(Cl)c1`, the Inhibition % is -0.873%.

Consider `Nc1c(C(=O)CCl)c(=O)[nH]c(=O)n1Cc1ccccc1`, for which the Inhibition % is on record as 10.6%. Then `C=CC(=O)N1CCN(c2ccccc2)C(=O)C1`, with 12.4%; and `CCc1ccc(B2OC(C)(C)C(C)(C)O2)n1C(=O)OC(C)(C)C`, with 5.89%; and `C=CC(=O)Nc1cccc(C2CCC(=O)N2)c1` (stereo not drawn), with 12.6%. For `Cc1ccccc1OS(=O)(=O)c1c(C)nn(C)c1Cl`, the Inhibition % stood at 10.2%. As for `O=C(O)c1ccc(N2C(=O)CCC2=O)cc1`, the Inhibition % was -3.2%. As to `C=CC(=O)NC1Cc2ccccc2NC1=O` (stereo not drawn), the Inhibition % is 12.2%. In the case of `O=C(Oc1ccc(-c2nnco2)cc1)N1CCOCC1`, the Inhibition % was 8.48%.
